Reference: the supplement of paper PMC3334620
In all, about 33,000 sequences were measured (“E-score (-0.5 to 0.5)”: median about -0.01, highest 2% from about 0.26 on). This is one part of the list.

Each sequence was assayed against Ste12 (UniProt P13574) (assay: PBM E-score (8-mer binding enrichment) (E-score (-0.5 to 0.5)); higher = stronger / more preferred TF binding; most listed sequences are background and not binding sites). Conditions: protein concentration: 200 nM; construct: GST-DNA-binding domain.
In short: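 Each ungapped eight-base word and its reverse complement, pooled, received an E-score from the Universal PBM Analysis Suite. Underlying scans, normalised with masliner, recorded fluorescent anti-GST bound to GST-tagged yeast transcription factors. These were applied at about 100-200 nM to universal all-10-mer Agilent arrays double-stranded by primer extension.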

| Sequence | PBM E-score |
| --- | --- |
| GAAGGCGA | -0.16 |
| GACATGTC | -0.268 |
| ACCCGGAC | -0.0992 |
| AAAAAACA | 0.331 |
| ATTATCTA | 0.0945 |
| GTTATGCA | -0.0887 |
| GGCTACCC | -0.285 |
| GGATCCGA | -0.195 |
| AAGAAACG | 0.148 |
| TCAGTCGA | -0.0156 |
| CCTGAGAA | -0.0164 |
| CCCGTGTA | -0.121 |
| CAGAGCGG | -0.0476 |
| CCTGCCTA | -0.18 |
| AGTTGTTG | -0.0162 |
| ATATACTA | 0.191 |
| ACCTCATC | -0.0717 |
| CGGGCTTA | 0.0808 |
| CGGACCCG | 0.0446 |
| CTACCATC | -0.179 |
| AGAGCTTA | -0.0314 |
| ATCTCATA | -0.00101 |
| CCCGGAAC | 0.0442 |
| AACTGTAA | 0.328 |
| GAGGCCGC | -0.275 |

| Sequence | PBM E-score |
| --- | --- |
| GCTGCACC | -0.116 |
| CGCATTAC | -0.0621 |
| CGTTCGGC | -0.156 |
| AGTATATC | -0.0122 |
| ATGTAGGA | -0.118 |
| CGGTTTTC | 0.166 |
| ATCGACAT | -0.032 |
| CGTAACTA | 0.0585 |
| AAAAGAGC | 0.0721 |
| ACGTCACC | 0.00053 |
| CGATAATC | -0.151 |
| GACCGTAC | -0.186 |
| CACTGAAA | 0.322 |
| ATGTCCAC | -0.0375 |
| ATCCTATA | 0.0688 |
| GTGGGACA | 0.104 |
| CAAGTCCC | -0.148 |
| CTAGGCCC | -0.112 |
| AGTCGCTA | -0.185 |
| CATAGCCA | -0.179 |
| AGCGGGTG | -0.0779 |
| GATTACAC | -0.0534 |
| GCAAGGGA | -0.0936 |
| ACCTTCAC | 0.134 |
| ATATTATC | 0.181 |

| Sequence | PBM E-score |
| --- | --- |
| CGAGCCAA | -0.0499 |
| CCACGGAC | -0.0718 |
| AGCGAGCA | -0.125 |
| GTCGCCTA | -0.171 |
| AGGTATTC | -0.0299 |
| ACGCGGGC | 0.067 |
| AATACGCA | 0.0688 |
| ACACCAGG | -0.154 |
| AAATCAAC | 0.186 |
| CTCGCTCC | 0.0967 |
| ACAACAAA | 0.152 |
| CCTCGGCA | 0.0665 |
| CTCTGGAA | -0.121 |
| ACTACTTA | 0.0589 |
| TCCCGGGA | 0.19 |
| CGAGCAAA | -0.0181 |
| AAACCGCG | 0.287 |
| CCGAGATA | -0.0199 |
| CGCTTCGA | -0.0748 |
| CAGACGAA | 0.167 |
| GGCCAGAA | 0.153 |
| ACCGAGGC | -0.115 |
| GACGGTCA | 0.00202 |
| GGTCTCGA | 0.0495 |
| ATGGAAAT | 0.0797 |

| Sequence | PBM E-score |
| --- | --- |
| GGCAGCGA | -0.0692 |
| GGGATACA | -0.0287 |
| AACGCGCG | 0.14 |
| CTCCGGAC | -0.0149 |
| CCACACAC | 0.064 |
| CCCCTAGA | -0.131 |
| AGAAATCA | 0.156 |
| AGTTCATA | 0.143 |
| CTTGCTTC | 0.0415 |
| GCGAGGAC | -0.201 |
| CGACGGAA | 0.00955 |
| GTCACAAC | 0.116 |
| ATAGGGAT | -0.0964 |
| CACTGGAC | -0.257 |
| GCGCCTGA | 0.0395 |
| AAGCACCG | -0.052 |
| AGGATAAC | -0.063 |
| ATCGATAC | 0.0976 |
| AGGCCATA | -0.245 |
| ACTTAGTG | -0.00871 |
| TAGAAAAA | 0.0605 |
| AACTATGA | 0.166 |
| GAACGTCC | -0.0356 |
| CCATCGAC | -0.077 |
| ATGGTAAC | 0.118 |

| Sequence | PBM E-score |
| --- | --- |
| AGCCACGA | -0.0321 |
| AGTGATGG | -0.0377 |
| CACCTGGG | -0.176 |
| AGTCTTAT | -0.0387 |
| AGTTTACG | 0.0418 |
| GTTGGTTA | -0.0651 |
| CCTAGCAG | -0.117 |
| CTACGCAA | -0.0688 |
| CAGCTACG | -0.253 |
| GACAGATA | -0.00214 |
| GTCATTAA | 0.124 |
| AAATGAAC | 0.154 |
| CATGCTTC | -0.0225 |
| CGCGGTCC | -0.123 |
| GATCGCAA | 0.113 |
| CAACGGCA | 0.0603 |
| GGCAGTTA | -0.00647 |
| GGGAAATA | 0.0559 |
| CTATCTGC | -0.0945 |
| CCCGCAGC | -0.106 |
| GCCACGTA | -0.16 |
| TATTAGCA | 0.108 |
| GGATAGTA | 0.0158 |
| CTGATTAC | 5e-05 |
| GTCACCGA | -0.0361 |

| Sequence | PBM E-score |
| --- | --- |
| CCGTAGGC | -0.133 |
| GACAGCCC | -0.085 |
| ACATGCAC | -0.0579 |
| CTCGACAC | 0.0679 |
| CTATTGGA | 0.0474 |
| CTAGGGAA | -0.00713 |
| GACTTTGA | 0.0133 |
| CCCAGTGA | -0.164 |
| ATAATATC | 0.0283 |
| AAGTCGGG | -0.0369 |
| CCCAGTTA | -0.171 |
| CACATGTA | 0.0686 |
| ACCGCCCG | -0.057 |
| CTGTATTA | 0.095 |
| AGTCTCAT | 0.104 |
| CGTTGGTA | -0.138 |
| CGCAATAC | 0.169 |
| GAGCATCC | -0.17 |
| AAACGCAA | 0.0977 |
| GTGCTCGA | -0.159 |
| GTGTGGTA | -0.0309 |
| AGTGCAAC | -0.0471 |
| CCATCTGC | 0.0198 |
| AACCAGAC | -0.095 |
| GCCAAATA | 0.101 |

| Sequence | PBM E-score |
| --- | --- |
| GTGGTGCA | -0.155 |
| GCCGATCC | -0.166 |
| GGTCGATA | 0.0867 |
| CGACTCCA | 0.0484 |
| GAGATGAC | -0.0892 |
| CCCCATCG | -0.044 |
| CGGACATA | 0.0625 |
| ATACGGCC | 0.141 |
| GATCCCCC | -0.0461 |
| GGAACCAA | 0.163 |
| AAGAGTGG | -0.111 |
| GGATACTA | 0.0524 |
| ACACAGGC | 0.186 |
| GAACGTTA | -0.0679 |
| GCTAAGCC | -0.137 |
| GTGCCATA | -0.138 |
| GATGATGC | -0.125 |
| TAACGCAA | 0.0707 |
| CCGCGTAG | 0.0797 |
| CCGTCCAG | -0.0267 |
| GCGCAACC | -0.155 |
| CGCAACAC | -0.0352 |
| ACGTCTAA | -0.109 |
| CCTTTTCG | 0.19 |
| ATCTAAAG | 0.0764 |

| Sequence | PBM E-score |
| --- | --- |
| AGTTGCCG | -0.0523 |
| CCGTTCAG | -0.0864 |
| CTTAGGCC | -0.257 |
| CTCCCCAA | 0.0954 |
| AATTATTA | 0.19 |
| CTCCTCAA | -0.0949 |
| CGCTAGCC | -0.206 |
| GTTCCCAA | -0.191 |
| CCGATATA | 0.058 |
| CACGGTAA | -0.0535 |
| CATTACGG | -0.0457 |
| GGTCTAGA | -0.0691 |
| GCGCATAC | -0.129 |
| GACCGGCC | -0.0562 |
| AGCCGTAT | 0.0733 |
| ATTTTGCA | 0.0521 |
| CCAGTGCC | -0.219 |
| AAATTAGT | 0.244 |
| AAAAGCCG | 0.0296 |
| ACGCAGCC | -0.134 |
| CAATTAAC | 0.181 |
| CCCGCCGG | 0.158 |
| ACGTAGTC | -0.302 |
| GAGGCAGA | -0.165 |
| CCGCGCAC | 0.045 |

| Sequence | PBM E-score |
| --- | --- |
| AATCAAAA | 0.222 |
| CTGTTGTA | 0.0589 |
| AAAGAACA | 0.0587 |
| TAACTTCA | 0.0907 |
| CAGATTAG | -0.165 |
| AACATTTA | 0.29 |
| AGCCATGA | -0.191 |
| GGGAGCCC | -0.262 |
| AGAGATAT | -0.0179 |
| GAGTGCAC | -0.0564 |
| AATTTTCC | 0.225 |
| AGTGAAGA | 0.114 |
| AGCGGAAG | -0.0482 |
| GACAACAA | 0.0852 |
| GCCGGCGA | -0.144 |
| CGGGAAAA | 0.157 |
| CCTATAAA | -0.0504 |
| CCGCCCCG | 0.408 |
| ATAAAATA | 0.257 |
